Laboratory results: PMC4336329 (PLoS ONE, 2015)
Among all 310,000 compounds or so, about 2,200 (0.71%) showed an effect of 50% or more. The effect is printed as a negative number. The list shows a part of the results.

Target: human ether-à-go-go-related gene (hERG) potassium channel (human, UniProt Q12809)
Assay: primary screen, population patch clamp on CHO cells stably expressing hERG

human ether-à-go-go-related gene (hERG) potassium channel, sequence (Q12809 whole entry, looked up): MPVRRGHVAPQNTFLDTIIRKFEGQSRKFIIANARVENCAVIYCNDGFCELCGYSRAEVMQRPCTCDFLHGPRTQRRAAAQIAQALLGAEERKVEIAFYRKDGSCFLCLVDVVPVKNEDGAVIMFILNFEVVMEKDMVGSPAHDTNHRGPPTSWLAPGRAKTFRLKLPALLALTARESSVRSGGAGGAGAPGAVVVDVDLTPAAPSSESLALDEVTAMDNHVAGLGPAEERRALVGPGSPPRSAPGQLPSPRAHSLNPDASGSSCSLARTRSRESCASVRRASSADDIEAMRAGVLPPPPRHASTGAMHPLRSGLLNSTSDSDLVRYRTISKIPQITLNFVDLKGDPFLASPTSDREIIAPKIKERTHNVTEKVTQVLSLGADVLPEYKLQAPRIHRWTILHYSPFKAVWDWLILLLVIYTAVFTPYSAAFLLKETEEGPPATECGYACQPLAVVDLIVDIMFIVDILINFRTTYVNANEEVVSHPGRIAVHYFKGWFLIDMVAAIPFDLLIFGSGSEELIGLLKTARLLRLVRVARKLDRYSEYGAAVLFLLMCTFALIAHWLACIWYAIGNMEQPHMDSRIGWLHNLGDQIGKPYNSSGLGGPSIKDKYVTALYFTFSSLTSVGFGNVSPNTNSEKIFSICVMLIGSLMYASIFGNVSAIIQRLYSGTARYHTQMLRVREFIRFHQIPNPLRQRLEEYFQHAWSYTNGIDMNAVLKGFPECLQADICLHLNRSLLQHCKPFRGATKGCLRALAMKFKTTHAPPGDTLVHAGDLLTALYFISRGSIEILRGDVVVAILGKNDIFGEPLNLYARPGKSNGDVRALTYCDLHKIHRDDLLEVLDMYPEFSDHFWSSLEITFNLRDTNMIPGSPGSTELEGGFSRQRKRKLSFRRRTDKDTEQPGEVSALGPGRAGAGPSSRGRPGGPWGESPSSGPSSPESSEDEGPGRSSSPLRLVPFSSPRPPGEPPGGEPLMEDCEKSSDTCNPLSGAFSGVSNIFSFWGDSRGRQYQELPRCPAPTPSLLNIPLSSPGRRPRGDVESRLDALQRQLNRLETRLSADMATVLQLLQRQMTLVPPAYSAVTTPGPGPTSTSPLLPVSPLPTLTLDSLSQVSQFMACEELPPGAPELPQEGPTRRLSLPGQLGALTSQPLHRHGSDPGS

Row | Compound | hERG current change (%, negative = inhibition) at 1uM [%]
1 | COc1ccc(OC)c(C2=Nn3c(nnc3-c3cc(C)[nH]n3)SC2)c1 | -1.69
2 | NS(=O)(=O)c1cccc(NC(=O)COC(=O)COc2ccc3ccccc3c2)c1 | 13.5
3 | COc1ccc(CNC(=O)C2CCCN2C(=O)NC2CCCCC2)cc1 (centres unmarked) | -8.68
4 | COc1cccc(N2C(=O)C(CC(=O)Nc3ccc(F)cc3)N(C3CCCCC3)C2=O)c1 (centres unmarked) | -5.88
5 | Cc1ccc(CNC(=O)COC(=O)CSc2ccc(Br)cc2C)cc1 | 2.26
6 | OCC[C@@H]1C[C@@H](O)[C@H](O)[C@@]2(OCCc3ccccc32)O1 | 17
7 | CCCc1cc(=O)[nH]c(SCC(=O)N(CCOC)c2c(N)n(Cc3ccccc3)c(=O)[nH]c2=O)n1 | -0.997
8 | CCOC(=O)c1cnc(SCc2ccc(C)cc2)nc1N | 7.87
9 | Cc1ccc(C(=O)Nc2cc(Cl)ccc2Oc2ccccc2)cc1[N+](=O)[O-] | 9.15
10 | Cc1ccc(S(=O)(=O)N(C)C)cc1[N+](=O)[O-] | 6.69
11 | O=C(O)CCc1ccc(-c2ccc(Br)cc2)n1-c1ccc(O)cc1 | 14.9
12 | Cc1cc(C)c[n+](-c2[nH]c(=O)sc2/C=N/NC([S-])=Nc2ccccc2)c1 | 7.6
13 | COc1cc(/C=C2/SC(=S)N(CC(=O)O)C2=O)ccc1OCC(=O)Nc1ccc(C)c(C)c1 | -5.45
14 | Cc1c(Cl)cccc1NC(=O)Nc1cc(C(C)(C)C)nn1C | 11.5
15 | CCOc1cc2c3c(c1)C1(OCCO1)C(=O)N3C(C)(C)CC2C (centres unmarked) | 9.26
16 | CCOC(=O)c1sc(NCC2CCCO2)nc1C (centres unmarked) | 14.2
17 | COc1ccc(/C=N/NC(=O)CC(=O)NCCc2ccccc2)cc1OC | 11.1
18 | CCCC[C@@H]1C[C@H]1[C@@H](NC(=O)c1ccco1)c1ccc(Cl)cc1 | 6.22
19 | CCN(CCO)C(=O)C(c1ccccc1)c1ccccc1 | 10.8

Row | Compound | hERG current change (%, negative = inhibition) at 1uM [%]
20 | C[C@@H]1CN(Cc2nc(-c3cccs3)no2)C[C@H](C)O1 | 13.5
21 | COc1ccc(NC(=O)Nc2ccncc2)c(OC)c1 | 17
22 | CCOC(=O)c1nc(Nc2ccc(N3CCC(C)CC3)cc2)c2ccccc2n1 | 3.91
23 | CCC(C)(C)c1ccc(OCCN2C(=O)NC(C)(C)C2=O)cc1 | 7.01
24 | O=C(CSc1ccc(Cl)cc1)N1CCOCC1 | 5.38
25 | Clc1cc(Cl)cc(Nc2ncnc(-n3cccc3)n2)c1 | 9.45
26 | O=[N+]([O-])c1ccc(SCCO)nc1SCCO | 7.52
27 | Cc1ccc(-n2nnnc2Sc2nc([N+](=O)[O-])nn2C)c(C)c1 | -23.1
28 | CC(C)C(=O)Nc1ccc(NC(=O)CCc2ccccc2)cn1 | 12.4
29 | CCc1nnc(NC(=O)CN2CCN(c3nc(-c4ccccc4)cs3)CC2)s1 | -9.65
30 | N#Cc1cn(-c2ccccc2)nc1-c1ccccc1 | -3.08
31 | Cc1cc(N2CCN(C)CC2)nc2ccc(NC(=S)N3CCN(c4ccc(F)cc4)CC3)cc12 | 0.602
32 | COC(=O)C1(Cc2cc(-c3ccc(OC)cc3OC)no2)CCN(C(=O)OC(C)(C)C)CC1 | 5.64
33 | CC(=O)N(c1ccc2oc(=O)sc2c1)S(=O)(=O)c1ccccc1 | 11.4
34 | Cc1cc(NC(=O)CSCC(=O)OCc2nnc(-c3ccccc3)o2)no1 | 10.6
35 | COc1ccc(CN2C(=O)C3C4C=CC(C4)C3C2=O)cc1 (centres unmarked) | 8.51
36 | Cc1ccc(-c2nn(-c3ccccc3)cc2/C=N/NC(=O)CSc2nnc(C)n2-c2ccccc2)cc1 | 6.69
37 | CCN(CC(=O)Nc1ccc2c(c1)OCCO2)C(=O)/C=C/c1cccc(Br)c1 | -3.19
38 | Cc1sc2nc(C3CC3)nc(N3CCN(C(=O)c4ccccc4F)CC3)c2c1C.Cl | 17.8

Row | Compound | hERG current change (%, negative = inhibition) at 1uM [%]
39 | COc1ccc(OC)c(-c2nn(-c3ccccc3)cc2C(=O)NCC(c2ccco2)N2CCCC2)c1 (centres unmarked) | -30.4
40 | COc1cccc(C(=O)N2N=C(c3cccc(OC)c3)CC2(O)C(F)(F)F)c1 (centres unmarked) | 17.9
41 | Br.Cc1ccc(C2=CSC3=NCCN23)c(C)c1 | -1.69
42 | CC1(C)C2SCC(=O)N2CCN1CC(=O)NN (centres unmarked) | 11.7
43 | NC(=O)CN1C(=O)C2C3c4ccccc4C(c4ccccc43)C2C1=O (centres unmarked) | 8.01
44 | CN1CCN(C(=O)c2c(NC(=O)c3ccco3)sc3c2CCC(C(C)(C)C)C3)CC1 (centres unmarked) | -33.3
45 | CN(c1ccc(C(=O)N2CCCCCC2)cc1)S(=O)(=O)c1ccccc1 | 13.8
46 | CCOC(=O)CN1C(=O)CSc2ccc(S(=O)(=O)N3CCOCC3)cc21 | 22.6
47 | OC(Cc1ccncc1)(c1ccccc1)c1ccccc1 | 4.75
48 | COc1ccc(C2C(C(N)=O)=C(C)Nc3nc(CCCO)nn32)cc1OC (centres unmarked) | 15.9
49 | CCN(CC)C(=O)C(=O)Nc1ccc(OCc2ccccc2)cc1 | 11.9
50 | O=C(Cn1cccc1C(=O)c1ccccc1)NCCN1CCOCC1 | 2.13
51 | Cc1onc(-c2c(F)cccc2Cl)c1C(=O)Nc1ccc(Cl)c(S(=O)(=O)N(C)C)c1 | 14.2
52 | CCCCOc1ccc(OCCNS(=O)(=O)N(C)C)cc1 | 0.16
53 | COc1ccc(C(=O)O)cc1NC(=S)NC(=O)C(c1ccccc1)c1ccccc1 | 16.4
54 | COc1ccccc1-n1cc(CN2CCCC(CO)(Cc3cccc(Cl)c3)C2)cn1 (centres unmarked) | -6.12
55 | Cc1sc2nc(CSCC(=O)Nc3ccc(N4CCOCC4)cc3)[nH]c(=O)c2c1C | 3.76
56 | O=C(Nc1ccncc1)C1CCCN(S(=O)(=O)c2cccc3cccnc23)C1 (centres unmarked) | 0.8
